{"source": "paper PMC4336329", "about": "(PLoS ONE, 2015)", "note": "The whole screen tested about 310,000 compounds, of which about 2,200 (0.71%) showed an effect of 50% or more. The effect is printed as a negative number. Some of the results follow.", "data": [{"target": "human ether-à-go-go-related gene (hERG) potassium channel (human, UniProt Q12809)", "sequence (Q12809 whole entry, looked up)": "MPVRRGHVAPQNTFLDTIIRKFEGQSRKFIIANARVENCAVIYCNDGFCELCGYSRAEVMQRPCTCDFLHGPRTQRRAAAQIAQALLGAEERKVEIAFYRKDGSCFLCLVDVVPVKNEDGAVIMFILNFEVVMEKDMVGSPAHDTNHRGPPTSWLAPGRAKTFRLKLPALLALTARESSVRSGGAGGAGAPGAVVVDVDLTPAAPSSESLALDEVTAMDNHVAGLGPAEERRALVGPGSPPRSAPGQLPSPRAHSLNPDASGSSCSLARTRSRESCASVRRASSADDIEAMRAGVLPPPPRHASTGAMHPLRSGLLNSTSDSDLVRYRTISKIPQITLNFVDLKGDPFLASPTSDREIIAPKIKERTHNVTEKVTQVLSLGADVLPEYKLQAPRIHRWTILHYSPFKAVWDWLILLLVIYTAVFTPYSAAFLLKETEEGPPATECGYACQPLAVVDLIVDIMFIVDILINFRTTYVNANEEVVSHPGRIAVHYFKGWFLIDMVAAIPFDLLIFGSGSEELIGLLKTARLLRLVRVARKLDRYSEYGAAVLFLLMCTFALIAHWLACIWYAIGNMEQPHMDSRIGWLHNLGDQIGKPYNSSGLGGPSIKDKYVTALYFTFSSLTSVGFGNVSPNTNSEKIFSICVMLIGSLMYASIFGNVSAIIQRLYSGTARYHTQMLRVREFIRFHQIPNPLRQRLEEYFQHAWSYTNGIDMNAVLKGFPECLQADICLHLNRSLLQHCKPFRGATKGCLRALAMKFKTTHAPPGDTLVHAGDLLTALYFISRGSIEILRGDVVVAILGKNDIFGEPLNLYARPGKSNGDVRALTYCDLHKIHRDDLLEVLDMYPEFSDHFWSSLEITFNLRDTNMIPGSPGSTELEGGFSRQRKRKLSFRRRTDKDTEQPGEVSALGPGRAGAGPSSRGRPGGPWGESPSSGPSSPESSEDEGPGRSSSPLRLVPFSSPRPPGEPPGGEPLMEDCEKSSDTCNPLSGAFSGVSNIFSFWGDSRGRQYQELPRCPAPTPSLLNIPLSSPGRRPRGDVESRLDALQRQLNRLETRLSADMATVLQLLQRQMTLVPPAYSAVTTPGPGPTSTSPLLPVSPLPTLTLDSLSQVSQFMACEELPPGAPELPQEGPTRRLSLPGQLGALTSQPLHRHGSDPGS", "test": "primary screen, population patch clamp on CHO cells stably expressing hERG", "units": {"hERG current change (%, negative = inhibition) at 1uM": "%"}, "values": [{"smiles": "COc1ccccc1CCC(=O)OCC(=O)Nc1c(C)nn(-c2ccccc2)c1C", "hERG current change (%, negative = inhibition) at 1uM": 5.32}, {"smiles": "O=C(Nc1ccc(OC(F)(F)F)cc1)C1CC(c2ccc(F)cc2)=NO1", "note": "(centres unmarked)", "hERG current change (%, negative = inhibition) at 1uM": 23.1}, {"smiles": "CCOCN(C(=O)CCl)c1c(C)cccc1CC", "hERG current change (%, negative = inhibition) at 1uM": 0.214}, {"smiles": "O=S(=O)(c1cccc2cccnc12)N1CCN(c2ccccn2)CC1", "hERG current change (%, negative = inhibition) at 1uM": 8.58}, {"smiles": "CC(C)C(c1nnnn1Cc1ccccc1)N1CCC(C(N)=O)CC1", "note": "(centres unmarked)", "hERG current change (%, negative = inhibition) at 1uM": 5.62}, {"smiles": "COc1ccc(NC(=O)c2ccco2)cc1NC(=O)c1cccc(OC(C)C)c1", "hERG current change (%, negative = inhibition) at 1uM": -8.96}, {"smiles": "COC(=O)c1ccc(COc2ccc(CNCc3ccc(Cl)cc3)cc2)cc1", "hERG current change (%, negative = inhibition) at 1uM": 10.1}, {"smiles": "COc1ccc(C(=O)C2CCCN(C(=O)c3cccc(Cl)c3F)C2)cc1OC", "note": "(centres unmarked)", "hERG current change (%, negative = inhibition) at 1uM": 14.4}, {"smiles": "Cc1cccc(N(CC(=O)Nc2ccc(F)cc2)S(C)(=O)=O)c1", "hERG current change (%, negative = inhibition) at 1uM": 9.67}, {"smiles": "COC(=O)Cn1c(=NC(=O)c2nc3ccccc3s2)sc2cc(S(C)(=O)=O)ccc21", "hERG current change (%, negative = inhibition) at 1uM": -0.94}, {"smiles": "CCCCOc1ccc(CN2CCC(O)CC2)cc1", "hERG current change (%, negative = inhibition) at 1uM": 6.42}, {"smiles": "CC(C)c1ccc(S(=O)(=O)N2CCC(C(=O)N3CCC3)CC2)cc1", "hERG current change (%, negative = inhibition) at 1uM": 8.37}, {"smiles": "CCN(CC)c1ccc(NC(=O)Cn2c(C(C)NC(=O)c3ccccc3)nc3ccccc32)cc1", "note": "(centres unmarked)", "hERG current change (%, negative = inhibition) at 1uM": 16.8}, {"smiles": "Cc1ccc(O)c(O)c1", "hERG current change (%, negative = inhibition) at 1uM": 11}, {"smiles": "CCN(CC)S(=O)(=O)c1ccc(C(=O)NCc2ccc(C)cc2)cc1", "hERG current change (%, negative = inhibition) at 1uM": -0.676}, {"smiles": "CC#CC[N+](C)(C)CCCCCCCC.[Br-]", "hERG current change (%, negative = inhibition) at 1uM": -4.53}, {"smiles": "O=[N+]([O-])c1ccc(COc2ccc(-c3[nH]ncc3-c3ccc(Cl)cc3)c(O)c2)cc1", "hERG current change (%, negative = inhibition) at 1uM": 1.44}, {"smiles": "Cc1c(Br)c([N+](=O)[O-])nn1CC(=O)NCc1cccs1", "hERG current change (%, negative = inhibition) at 1uM": -0.373}, {"smiles": "O=C(C1COc2ccccc2O1)N1CCN(c2ccccc2F)CC1", "note": "(centres unmarked)", "hERG current change (%, negative = inhibition) at 1uM": 10.2}, {"smiles": "CCCNC(=O)c1cc(SC)ccc1Cl", "hERG current change (%, negative = inhibition) at 1uM": 3.96}, {"smiles": "O=C1Nc2ccccc2C(O)(C(=O)NCc2ccc3c(c2)OCO3)N1c1ccccc1", "note": "(centres unmarked)", "hERG current change (%, negative = inhibition) at 1uM": 10.1}, {"smiles": "CCOC(=O)C(=O)C1C(=O)Nc2ccccc21", "note": "(centres unmarked)", "hERG current change (%, negative = inhibition) at 1uM": 15.6}, {"smiles": "CS/C(=N/S(=O)(=O)c1ccc(C)cc1)c1ccccc1", "hERG current change (%, negative = inhibition) at 1uM": 2.36}, {"smiles": "O=C(c1cc2n(n1)C(C(F)(F)F)CC(c1ccc(Cl)cc1)N2)N1CCCC1", "note": "(centres unmarked)", "hERG current change (%, negative = inhibition) at 1uM": 8.26}, {"smiles": "COc1cc(C)c(S(=O)(=O)N2CCOCC2)cc1C", "hERG current change (%, negative = inhibition) at 1uM": 13.5}, {"smiles": "CCCC1CCC(=NNC(=O)CNc2ccc(OC)cc2)CC1", "note": "(centres unmarked)", "hERG current change (%, negative = inhibition) at 1uM": 10.8}, {"smiles": "Cc1ccccc1OCCC(=O)OCC(=O)Nc1ccc2[nH]c(=O)[nH]c2c1", "hERG current change (%, negative = inhibition) at 1uM": 10.2}, {"smiles": "COc1ccc(N=CC2=C(O)CC(C)(C)CC2=O)cc1OC", "hERG current change (%, negative = inhibition) at 1uM": 11.8}, {"smiles": "O=C(COc1ccccc1)Nc1nc2ccccc2[nH]1", "hERG current change (%, negative = inhibition) at 1uM": 15.2}, {"smiles": "COc1ccc(C(=O)NCCSc2ccccc2)cc1OC", "hERG current change (%, negative = inhibition) at 1uM": 4.42}, {"smiles": "COC(=O)c1nn(-c2ccccc2)c(Sc2ccccc2)c1/C=N/O", "hERG current change (%, negative = inhibition) at 1uM": 10.6}, {"smiles": "Cc1cccc(NC(=O)C2CC(=O)N(c3ccccc3)C2)c1C", "note": "(centres unmarked)", "hERG current change (%, negative = inhibition) at 1uM": 9.76}, {"smiles": "COC(=O)C1=C(c2ccc(F)cc2F)C[C@@H]2CC[C@H]1N2C(=O)NCCOc1ccccc1", "hERG current change (%, negative = inhibition) at 1uM": 9.02}, {"smiles": "C=CCOCCN1C(=O)C2C3C=CC(C2C1=O)C1C2C(=O)N(CCOCC=C)C(=O)C2C31", "note": "(centres unmarked)", "hERG current change (%, negative = inhibition) at 1uM": -13.4}, {"smiles": "Cc1cc(C)c(NC(=O)Nc2ccc3c(c2)OCO3)c(C)c1", "hERG current change (%, negative = inhibition) at 1uM": 9.38}, {"smiles": "CN(C)CCc1c[nH]c2ccc(Cn3cncn3)cc12.O=C(O)c1ccccc1", "hERG current change (%, negative = inhibition) at 1uM": 0.541}, {"smiles": "CC(CC(=O)N(C)c1c(N)n(Cc2ccccc2)c(=O)[nH]c1=O)c1ccccc1", "note": "(centres unmarked)", "hERG current change (%, negative = inhibition) at 1uM": -8.15}, {"smiles": "CCOC(=O)c1[nH]c(C)c(CCC(=O)OC)c1C", "hERG current change (%, negative = inhibition) at 1uM": 14}, {"smiles": "O=C(CSc1nc2ccccc2c(=O)[nH]1)Nc1cccc([N+](=O)[O-])c1", "hERG current change (%, negative = inhibition) at 1uM": 12}, {"smiles": "CN(Cc1cc(-c2ccccc2)on1)C(=O)c1cc(COc2c(F)cccc2F)on1", "hERG current change (%, negative = inhibition) at 1uM": 5.58}, {"smiles": "NCCc1nc2ccccc2s1", "hERG current change (%, negative = inhibition) at 1uM": 15.1}, {"smiles": "COc1cc(C)c(NC(=O)COc2ccc3c(c2)OCO3)cc1C", "hERG current change (%, negative = inhibition) at 1uM": 14.4}, {"smiles": "CC(C)(C)NC(=O)c1ccc2c(c1)C(=O)N(Cc1ccco1)C2=O", "hERG current change (%, negative = inhibition) at 1uM": 10.3}, {"smiles": "Cc1cc(C)c(C#N)c(SCC(=O)NC2CC2)n1", "hERG current change (%, negative = inhibition) at 1uM": 6.56}]}]}
